# According to the supplement of paper PMC8728848:
# The other results are listed elsewhere or left out.
# Columns and labels:
# Test in all cases: glycan array binding signal (z-score within array); higher = stronger binding
# Conditions in all cases: glycan notation: IUPAC condensed, linker removed
# [1] = target: GalNAc(b1-4)GlcNAc(b1-2)Man(a1-3)[GalNAc(b1-4)GlcNAc(b1-2)Man(a1-6)]Man(b1-4)GlcNAc(b1-4)GlcNAc
# Procedure, shortened: (§1)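 Glycan array binding is given as a within-array Z-score, which can be read as non-binding when negative. The arrays, 3228 of them, came from the Consortium for Functional Glycomics database and were retained only where the protein sequence was available. Z-scores were averaged across arrays of the same protein sequence at different concentrations or buffers and across linkers.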
# [2] = target: GalNAc(b1-6)GalNAc
# Procedure, shortened: as §1
# [3] = target: Glc(a1-4)Glc
# Procedure, shortened: as §1
# [4] = target: Glc(a1-4)Glc(a1-4)Glc(a1-4)Glc
# Procedure, shortened: as §1
# [5] = target: Glc(a1-6)Glc(a1-6)Glc
# Procedure, shortened: as §1
# [6] = target: Glc(a1-6)Glc(a1-6)Glc(a1-6)Glc
# Procedure, shortened: as §1
# [7] = target: Glc(b1-4)Glc
# Procedure, shortened: as §1
# [8] = target: Glc(b1-6)Glc
# Procedure, shortened: as §1
# [9] = target: GlcA(b1-3)Gal
# Procedure, shortened: as §1
# [10] = target: GlcA(b1-3)GlcNAc
# Procedure, shortened: as §1
# [11] = target: GlcA(b1-6)Gal
# Procedure, shortened: as §1
# [12] = target: GlcNAc(a1-3)Gal(b1-4)GlcNAc
# Procedure, shortened: as §1
# [13] = target: GlcNAc(a1-4)Gal(b1-3)GlcNAc
# Procedure, shortened: as §1
# [14] = target: GlcNAc(a1-4)Gal(b1-4)GalNAc
# Procedure, shortened: as §1
# [15] = target: GlcNAc(a1-4)Gal(b1-4)GlcNAc
# Procedure, shortened: as §1
# [16] = target: GlcNAc(a1-4)Gal(b1-4)GlcNAc(b1-3)Gal(b1-4)Glc
# Procedure, shortened: as §1
# [17] = target: GlcNAc(a1-4)Gal(b1-4)GlcNAc(b1-3)Gal(b1-4)GlcNAc
# Procedure, shortened: as §1
# [18] = target: GlcNAc(a1-4)Gal(b1-4)GlcNAc(b1-3)Gal(b1-4)GlcNAc(b1-3)Gal(b1-4)GlcNAc
# Procedure, shortened: as §1
# [19] = target: GlcNAc(a1-4)Gal(b1-4)GlcNAc(b1-3)Gal(b1-4)[Fuc(a1-3)]GlcNAc(b1-3)Gal(b1-4)[Fuc(a1-3)]GlcNAc
# Procedure, shortened: as §1
# [20] = target: GlcNAc(a1-6)Gal(b1-4)GlcNAc
# Procedure, shortened: as §1
# [21] = target: GlcNAc(b1-2)Gal(b1-3)GalNAc
# Procedure, shortened: as §1
# [22] = target: GlcNAc(b1-2)Man(a1-3)[GlcNAc(b1-2)Man(a1-6)]Man(b1-4)GlcNAc(b1-4)GlcNAc
# Procedure, shortened: as §1
# [23] = target: GlcNAc(b1-2)Man(a1-3)[GlcNAc(b1-2)Man(a1-6)]Man(b1-4)GlcNAc(b1-4)[Fuc(a1-6)]GlcNAc
# Procedure, shortened: as §1
# [24] = target: GlcNAc(b1-2)Man(a1-3)[GlcNAc(b1-4)][GlcNAc(b1-2)Man(a1-6)]Man(b1-4)GlcNAc(b1-4)GlcNAc
# Procedure, shortened: as §1
# [25] = target: GlcNAc(b1-2)[GlcNAc(b1-4)]Man(a1-3)[GlcNAc(b1-2)Man(a1-6)]Man(b1-4)GlcNAc(b1-4)GlcNAc
# Procedure, shortened: as §1
# [26] = target: GlcNAc(b1-2)[GlcNAc(b1-4)]Man(a1-3)[GlcNAc(b1-4)][GlcNAc(b1-2)Man(a1-6)]Man(b1-4)GlcNAc(b1-4)GlcNAc
# Procedure, shortened: as §1
# [27] = target: GlcNAc(b1-2)[GlcNAc(b1-4)]Man(a1-3)[GlcNAc(b1-4)][GlcNAc(b1-2)[GlcNAc(b1-6)]Man(a1-6)]Man(b1-4)GlcNAc(b1-4)GlcNAc
# Procedure, shortened: as §1
# [28] = target: GlcNAc(b1-2)[GlcNAc(b1-6)]Man(a1-6)[GlcNAc(b1-2)Man(a1-3)]Man(b1-4)GlcNAc(b1-4)GlcNAc
# Procedure, shortened: as §1
# [29] = target: GlcNAc(b1-2)[GlcNAc(b1-6)]Man(a1-6)[GlcNAc(b1-2)Man(a1-3)][GlcNAc(b1-4)]Man(b1-4)GlcNAc(b1-4)GlcNAc
# Procedure, shortened: as §1
# [30] = target: GlcNAc(b1-3)Gal
# Procedure, shortened: as §1
# [31] = target: GlcNAc(b1-3)Gal(b1-3)GalNAc
# Procedure, shortened: as §1
# [32] = target: GlcNAc(b1-3)Gal(b1-4)Glc
# Procedure, shortened: as §1
# [33] = target: GlcNAc(b1-3)Gal(b1-4)GlcNAc
# Procedure, shortened: as §1
# [34] = target: GlcNAc(b1-3)Gal(b1-4)GlcNAc(b1-3)Gal(b1-4)GlcNAc
# Procedure, shortened: as §1
# [35] = target: GlcNAc(b1-3)GalNAc
# Procedure, shortened: as §1
# [36] = target: GlcNAc(b1-3)Man
# Procedure, shortened: as §1
# [37] = target: GlcNAc(b1-3)[GlcNAc(b1-4)][GlcNAc(b1-6)]GlcNAc
# Procedure, shortened: as §1
# [38] = target: GlcNAc(b1-3)[GlcNAc(b1-6)]Gal(b1-4)GlcNAc
# Procedure, shortened: as §1
# [39] = target: GlcNAc(b1-3)[GlcNAc(b1-6)]GalNAc
# Procedure, shortened: as §1
# [40] = target: GlcNAc(b1-4)Gal(b1-4)GlcNAc
# Procedure, shortened: as §1
# [41] = target: GlcNAc(b1-4)GlcNAc
# Procedure, shortened: as §1
# [42] = target: GlcNAc(b1-4)GlcNAc(b1-4)GlcNAc
# Procedure, shortened: as §1
# [43] = target: GlcNAc(b1-4)GlcNAc(b1-4)GlcNAc(b1-4)GlcNAc(b1-4)GlcNAc
# Procedure, shortened: as §1
# [44] = target: GlcNAc(b1-4)GlcNAc(b1-4)GlcNAc(b1-4)GlcNAc(b1-4)GlcNAc(b1-4)GlcNAc
# Procedure, shortened: as §1
# [45] = target: GlcNAc(b1-4)[GlcNAc(b1-6)]GalNAc
# Procedure, shortened: as §1
binder,measurement,setting,value
"Eosinophil cationic protein (ECP) (Homo sapiens), P12724 (protein) MVPKLFTSQICLLLLLGLMGVEGSLHARPPQFTRAQWFAIQHISLNPPRCTIAMRAINNYRWRCKNQNTFLRTTFANVVNVCGNQSIRCPHNRTLNNCHRSRFRVPLLHCDLINPGAQNISNCTYADRPGRRFYVVACDNRDPRDSPRYPVVPVHLDTTI",glycan array binding signal (z-score),[1],0.146
same,glycan array binding signal (z-score),[2],-0.334
same,glycan array binding signal (z-score),[3],-0.382
same,glycan array binding signal (z-score),[4],-0.327
same,glycan array binding signal (z-score),[5],-0.359
same,glycan array binding signal (z-score),[6],-0.185
same,glycan array binding signal (z-score),[7],0.024
same,glycan array binding signal (z-score),[8],-0.124
same,glycan array binding signal (z-score),[9],-0.238
same,glycan array binding signal (z-score),[10],-0.366
same,glycan array binding signal (z-score),[11],-0.347
same,glycan array binding signal (z-score),[12],-0.358
same,glycan array binding signal (z-score),[13],-0.221
same,glycan array binding signal (z-score),[14],0.205
same,glycan array binding signal (z-score),[15],-0.091
same,glycan array binding signal (z-score),[16],0.59
same,glycan array binding signal (z-score),[17],8.33
same,glycan array binding signal (z-score),[18],0.357
same,glycan array binding signal (z-score),[19],4.18
same,glycan array binding signal (z-score),[20],3.15
same,glycan array binding signal (z-score),[21],-0.158
same,glycan array binding signal (z-score),[22],-0.403
same,glycan array binding signal (z-score),[23],0.236
same,glycan array binding signal (z-score),[24],-0.202
same,glycan array binding signal (z-score),[25],-0.197
same,glycan array binding signal (z-score),[26],0.079
same,glycan array binding signal (z-score),[27],0.22
same,glycan array binding signal (z-score),[28],-0.218
same,glycan array binding signal (z-score),[29],-0.355
same,glycan array binding signal (z-score),[30],-0.238
same,glycan array binding signal (z-score),[31],0.129
same,glycan array binding signal (z-score),[32],-0.422
same,glycan array binding signal (z-score),[33],-0.132
same,glycan array binding signal (z-score),[34],-0.384
same,glycan array binding signal (z-score),[35],-0.223
same,glycan array binding signal (z-score),[36],0.173
same,glycan array binding signal (z-score),[37],-0.322
same,glycan array binding signal (z-score),[38],-0.213
same,glycan array binding signal (z-score),[39],-0.275
same,glycan array binding signal (z-score),[40],0.075
same,glycan array binding signal (z-score),[41],-0.153
same,glycan array binding signal (z-score),[42],-0.422
same,glycan array binding signal (z-score),[43],-0.116
same,glycan array binding signal (z-score),[44],-0.013
same,glycan array binding signal (z-score),[45],-0.215
